# For at least one compound, name, drawing or mass did not settle the structure.
# How the values were obtained:
# recombinant BFT (rBFT) = assay: NFF-3 cleavage assay; assay type: biochemical, B. fragilis; details: rBFT pre-incubated with compound 30 minutes at 37° C., then NFF-3 for 24 hours; read-out: NFF3 IC50
# Procedure: A NFF-3 cleavage assay was used to test activity of recombinant BFT, before or after addition of various inhibitors. The NFF-3 cleavage assay was previously described by Goulas et al., PNAS, 2011, 108(5) 1856-1861, which is incorporated by reference herein in its entirety.
# Initially, recombinant BFT (rBFT) (0.25, 0.5, 1, 2, 4, 8, or 16 μg/mL) was incubated at 37° C. with the fluorogenic substrate NFF-3 (Cayman Chemical) at a concentration of 2.5 μM, 5 μM, or 10 μM. After 18 hours, fluorescence was measured in a microplate fluorimeter.
# Next, rBFT was pre-incubated with one or more test compounds at different concentrations for 30 minutes at 37° C. The rBFT-compound mixture was then added to NFF-3 and incubated for 24 hours at 37° C. Fluorescence was then measured in a microplate fluorimeter.
# ETBF = assay: ETBF-mediated disease model in mono-colonized germ-free mice; assay type: in vivo; details: 15-50 mg/kg p.o., QD
# Procedure: Test compounds were also screened in vivo. Germ-free (GF) mice were mono-colonized with ETBF on day 0. […] Markers of injury and inflammation (e.g., cecal weight and fecal lipocalin 2) were analyzed on day 4 (FIG. 6A). Sample size was 5-6 mice per group.
SMILES,IC50 (recombinant BFT (rBFT)),lipocalin2 levels (ETBF)
CSc1ccc(C[C@H](C(=O)NO)N(Cc2ccc3[nH]ccc3c2)S(=O)(=O)c2ccc(O)cc2)cc1 [Example 109],893 nM,
CCC[C@H](C(=O)NO)N(Cc1ccc2[nH]ccc2c1)S(=O)(=O)c1ccc(O)cc1 [Example 63],222 nM,
COc1ccc(C[C@H](C(=O)NO)N(Cc2ccc3[nH]ccc3c2)S(=O)(=O)c2ccc(O)cc2)cc1 [Example 103],483 nM,
CCC[C@H](C(=O)NO)N(Cc1ccc2[nH]ncc2c1)S(=O)(=O)c1ccc(OC(F)F)cc1 [Example 71],3760 nM,
CCSc1ccc(CN([C@H](Cc2cccs2)C(=O)NO)S(=O)(=O)c2ccc(O)cc2)cc1 [Example 104],810 nM,
O=C(NO)[C@@H](Cc1ccc([N+](=O)[O-])cc1)N(Cc1ccc2[nH]ccc2c1)S(=O)(=O)c1ccc(O)cc1 [Example 97],1120 nM,
CSc1ccc(CN([C@H](Cc2cccs2)C(=O)NO)S(=O)(=O)c2ccc(O)cc2)cc1 [Example 94],434 nM,
O=C(NO)[C@@H](Cc1c[nH]cn1)N(Cc1cccnc1)S(=O)(=O)c1ccc(O)cc1 [Example 61],49200 nM,
"COc1ccc(CN([C@H](Cc2cccs2)C(=O)NO)S(=O)(=O)c2ccc(O)cc2)cc1 [Example 82, (R)—N-hydroxy-2-((4-hydroxy-N-(4-methoxybenzyl)phenyl)sulfonamido)-3-(thiophen-2-yl) propanamide]",268 nM,
CCC[C@H](C(=O)NO)N(CC(OC)c1ccccc1)S(=O)(=O)c1ccc(O)cc1 (stereo partly shown) [Example 95],62 nM,
CN(C)c1ccc(CN([C@H](Cc2cccs2)C(=O)NO)S(=O)(=O)c2ccc(O)cc2)cc1 [Example 91],236 nM,
CC(C)C[C@H](C(=O)NO)N(Cc1cccnc1)S(=O)(=O)c1ccc(OC(F)F)cc1 [Example 40],3630 nM,
CC[C@H](C(=O)NO)N(CCc1ccccc1)S(=O)(=O)c1ccc(O)cc1 [Example 106],38 nM,
CC(C)C[C@H](C(=O)NO)N(Cc1cscn1)S(=O)(=O)c1ccc(O)cc1 [Example 30],270 nM,
O=C(NO)[C@@H](Cc1ccc(C(F)F)cc1)N(Cc1ccc2[nH]ccc2c1)S(=O)(=O)c1ccc(O)cc1 [Example 108],1140 nM,
CC(C)C[C@H](C(=O)NO)N(Cc1ccncc1)S(=O)(=O)c1ccc(O)cc1 [Example 28],140 nM,
CCC[C@H](C(=O)NO)N(Cc1ccc(C(F)(F)F)cc1)S(=O)(=O)c1ccc(O)cc1 [Example 110],49 nM,
CCC[C@H](C(=O)NO)N(CC(OC)c1ccccc1)S(=O)(=O)c1ccc(O)cc1 (stereo partly shown) [Example 96],88 nM,
CCC[C@H](C(=O)NO)N(CC(O)c1ccccc1)S(=O)(=O)c1ccc(O)cc1 (stereo partly shown) [Example 102],68 nM,
O=C(NO)[C@@H](c1ccc(F)cc1)N(Cc1ccc2[nH]ccc2c1)S(=O)(=O)c1ccc(O)cc1 [Example 113],111 nM,significantly reduce
O=C(NO)[C@@H](Cc1cccs1)N(Cc1ccc2[nH]ccc2c1)S(=O)(=O)c1ccc(O)cc1 [Example 111],349 nM,
CCCN([C@H](CC)C(=O)NO)S(=O)(=O)c1ccc(O)cc1 [Example 35],940 nM,
CCC[C@H](C(=O)NO)N(CCc1ccccc1)S(=O)(=O)c1ccc(O)cc1F [Example 101],104 nM,
CC(C)C[C@H](C(=O)NO)N(Cc1ccc(F)cc1)S(=O)(=O)c1ccc(O)cc1 [Example 26],6210 nM,
"O=C(NO)C(c1ccc(F)cc1)N(Cc1ccc2[nH]ccc2c1)S(=O)(=O)c1ccc(O)cc1 (stereo not shown) [Example 88, 2-((N-((1H-indol-5-yl)methyl)-4-hydroxyphenyl)sulfonamido)-2-(4-fluorophenyl)-N-hydroxy acetamide]",118 nM,
CCCOc1ccc(CN([C@H](Cc2cccs2)C(=O)NO)S(=O)(=O)c2ccc(O)cc2)cc1 [Example 99],335 nM,
O=C(NO)[C@@H](Cc1cccs1)N(Cc1ccc(C(F)(F)F)cc1)S(=O)(=O)c1ccc(O)cc1 [Example 107],605 nM,

# From US20230357139A1, “SMALL MOLECULE INHIBITORS OF BACTERIAL TOXINS” (Artizan Biosciences, Inc., priority 2020, published 2023)
